Results from PubChem BioAssay AID1345083 (National Center for Advancing Translational Sciences (NCATS), 2018).
The campaign covered roughly 94,000 compounds. About 6,200 (6.6%) were called active. Inconclusive means that the source gave no clear call. Such entries were picked first, then a sample of the others. Calls come from the whole dose curve; as a rule, active = well fitted inhibition curve with a large enough effect; inconclusive = small, poorly fitted or top-dose-only effect; inactive = flat fitted curve, though single readings scatter. Potencies beside an inconclusive call are fits to weak or partial responses and may not hold up.

test: Cytotoxic Profiling in HEK 293 Cell Line of Diverse Libraries Using Quantitative High-Throughput Screening; conditions: HEK 293 viability, ATP luminescence (CellTiter-Glo), 48-72 h; activity change, negative = cytotoxicity: at 115 µM (top of the series) unless noted; series mostly up to 115 µM; note: nearly all actives have a fitted effect of over 60% in size
Procedure, shortened: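 250 HEK 293 cells/well; compound by pintool; incubated 48 or 72 hr at 37 degree Celsius; CellTiter-Glo added, 10 min RT, luminescence imaged.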
% is set by controls: 0 for no effect and ±100 for the full control effect; potency is the fitted concentration of half-maximal effect; tags give direction and shape of the fitted curve.

SMILES | outcome | Potency | activity change, negative = cytotoxicity
O=C1CCCN1CC1CCN(C(=O)c2ccc(N3CCC(CO)C3)nc2)CC1 (configuration not stated) | inactive | – | –
O=C(c1ccoc1)N1CCCN(Cc2ccc3c(c2)OCO3)c2ccccc21 | – | inconclusive: 50.1 µM [inhibitor, partial curve, poor fit] | –
Cc1cccc2nc(C(=O)N3CCC4(CC3)CC(c3ccccc3)CN(C)C4)cn12 (configuration not stated) | – | inconclusive: 79.4 µM [inhibitor, single point] | –
O=C(NCc1nnc2ccc(-c3ccc(F)cc3)nn12)c1cccc(OC(F)(F)F)c1 | – | inconclusive: 11.2 µM [inhibitor, full curve, poor fit] | –
CCn1ccnc1CN1CCCC(CCc2ccc(OC)cc2)C1 (configuration not stated) | – | inconclusive: 25.1 µM [inhibitor, full curve, poor fit] | –
O=C(c1ccc(Cl)s1)N1CCC(n2cnnc2C2CC2)CC1 | inactive | – | –
O=C(Nc1ccccc1)N1CCc2c(c3ccccc3n2CC2CC2)C1 | – | inconclusive: 50.1 µM [inhibitor, partial curve, poor fit] | –
CN1CCN(c2ccc3ncc(Nc4ccccc4-c4ccccc4)n3n2)CC1 | – | active: 39.8 µM | –
O=C(NCc1ccc(F)cc1)c1nc(-c2ccc(Cl)cc2Cl)c2cnccn12 | – | inconclusive: 20 µM [inhibitor, full curve] | –
O=C(c1ccncc1)N1CCC(Cc2nc(C3CC3)n[nH]2)CC1 | inactive | – | –
CN(C)c1cccc(-c2nc(C3CC(=O)N(c4ccc(F)cc4)C3)no2)c1 (configuration not stated) | – | inconclusive: 79.4 µM [inhibitor, partial curve, poor fit] | –
Cc1nn(C)cc1CN1CC[C@](O)(c2ccccc2)[C@H](N(C)C)C1 | – | – | inactive: 11.5%
COCCCNC(=O)N1CCC(N2C(=O)C3(CCCC3)C2c2ccccc2)CC1 (configuration not stated) | inactive | – | –
CCOc1cccc(CN2CCC3(CC2)Cc2ccccc2CNC3=O)c1 | – | – | inactive: -23.4%
CCc1cccc2c(C(CC(=O)N3CCCC3)c3ccc(Cl)c(Cl)c3)c[nH]c12 (configuration not stated) | – | active: 39.8 µM | –
O=C(CNC(=O)c1cccc(-c2ccc(C(F)(F)F)cc2)c1)NCc1cccs1 | – | active: 39.8 µM | –
CCc1csc(CNC(=O)c2ccc(N3CCSCC3)nc2)n1 | – | inconclusive: 100 µM [inhibitor, partial curve, poor fit] | –
O=C(NCc1ccccn1)c1ccc2c(c1)N(C(=O)c1ccc(F)cc1)CC2 | – | – | inactive: -4.14%
Cc1cc(C(=O)Nc2ccc([C@H]3OCC(=O)N(CC(C)C)[C@@H]3CO)cc2)n(C)n1 | – | inconclusive: 79.4 µM [inhibitor, partial curve, poor fit] | –
CC1=C[C@@H](CNS(=O)(=O)c2cccs2)[C@H](C(C)C)C[C@H]1CC(=O)NCc1ccc(C#N)cc1 | – | inconclusive: 89.1 µM [inhibitor, single point] | –
O=C(N[C@H]1CO[C@H]2[C@@H]1OC[C@H]2OCc1ccccc1)c1ccc(C(F)(F)F)cc1 | – | active: 79.4 µM | –
CC1=C[C@@H](CNC(C)C)[C@H](C(C)C)C[C@H]1Cc1nnc(-c2ccncc2)o1 | – | inconclusive: 100 µM [inhibitor, partial curve, poor fit] | –
COc1cccc(S(=O)(=O)N2CCC(N3C(=O)[C@H](OC)[C@@H]3c3ccncc3)CC2)c1 | – | – | inactive: -2.74%

SMILES | outcome | Potency | activity change, negative = cytotoxicity
CCOC(=O)[C@@H]1CN(C(=O)c2ccc(C)cc2)[C@H]2c3ccccc3O[C@@H]12 | – | inconclusive: 50.1 µM [inhibitor, partial curve, poor fit] | –
COc1cccc(-c2cccc(C(=O)N3CCN([S+](=O)([O-])c4ccc(C)cc4)CC3)c2)c1 | – | inconclusive: 22.4 µM [inhibitor, partial curve] | –
O=C(Cc1ccc(F)cc1)N1CCCN(c2ccc3nnc(C4CC4)n3n2)CC1 | inactive | – | –
O=c1c2nc(N3CCC(c4ccccc4)CC3)ccc2ncn1C1CC1 | – | active: 89.1 µM | –
C[C@@]1(O)CCN(C(=O)CCc2ccc(F)cc2)C[C@@H]1O | – | – | inactive: -4.38%
CC1(CCCCN2CCOCC2)COc2ccc(C(=O)Nc3ccc4[nH]ccc4c3)cc2N1 (configuration not stated) | – | inconclusive: 56.2 µM [inhibitor, partial curve, poor fit] | –
Cc1ccc(Nc2ccnc(N3CCN(C(=O)C4CC4)CC3)n2)cc1 | – | active: 70.8 µM | –
O=C(NCc1nnc2ccc(-c3ccc(Cl)cc3)nn12)C1(c2ccccc2)CC1 | – | inconclusive: 89.1 µM [inhibitor, single point] | –
Cc1cccc(CC(=O)N2CCC3(CC2)N(C)C(=O)CS3(=O)=O)c1 | – | – | inactive: -5.11%
c1ccc2sc([C@H]3CCN(CC4CCCCC4)C3)nc2c1 | – | inconclusive: 100 µM [inhibitor, partial curve] | –
COc1ccc(CNC(=O)CC[C@H]2CNC(=O)[C@@H]3[C@@H](CCN3C3CCCCC3)N2C)cc1 | – | – | inactive: 3.37%
Cc1ccc(C)c(C(=O)NCCn2ccn3nc(-c4cc(C)ccc4C)cc3c2=O)c1 | – | active: 39.8 µM | –
Cc1cc(F)ccc1OC1CN(Cc2cccnc2)C1 | – | inconclusive: 126 µM [inhibitor, single point] | –
OC1(CNCc2cccnc2-n2cncn2)CCNC1 (configuration not stated) | – | – | inactive: -13%
Cc1ccc(C)c(CN2C[C@@H]3C(=O)N(CCN4CCc5ccccc5C4)C(=O)[C@@H]3C2)c1 | – | inconclusive: 44.7 µM [inhibitor, partial curve, poor fit] | –
Cc1c(CN2CCCC(C(=O)Nc3cccc(-c4cc5ccccc5[nH]4)c3)C2)cnn1C (configuration not stated) | – | active: 20 µM | –
CN1CC[C@H]2COC(=O)N2c2ccccc2C1 | inactive [at 230 µM] | – | –
CC(=O)N[C@@H]1CN(S(=O)(=O)N2CCOCC2)C[C@H]1c1ccc(C)o1 | – | – | inactive: -4.01%
CC(=O)N[C@H]1C[C@@H](Cc2cc(CC(C)C)on2)C1(C)C | – | inconclusive: 112 µM [inhibitor, partial curve, poor fit] | –
COc1ccc(C(=O)N[C@@H]2CCC[C@@H]2C(=O)NCCCn2cccn2)cn1 | inactive | – | –
Cn1cccc1C(=O)N1CC[C@H](NC(=O)Nc2ccc(F)cc2F)[C@H]1C(=O)N[C@H](Cc1ccccc1)C(N)=O | – | – | inactive: -5.59%
CCc1noc(-c2cn(C3CCN(C(=O)C(C)Oc4ccc(Cl)cc4)CC3)nn2)n1 (configuration not stated) | – | inconclusive: 89.1 µM [inhibitor, partial curve, poor fit] | –
O=C1N(Cc2ccccc2F)CCOC12CCN(Cc1ccc(F)cc1F)CC2 | – | inconclusive: 79.4 µM [inhibitor, partial curve] | –

SMILES | outcome | Potency | activity change, negative = cytotoxicity
C=CCNC(=O)CCc1c(C)nn(-c2ccc(F)cc2)c1Oc1ccccc1F | – | inconclusive: 56.2 µM [inhibitor, partial curve, poor fit] | –
Cc1ccc(S(=O)(=O)N2C[C@@H](F)C[C@H]2C(=O)N2CCc3ccccc3C2)c(C)c1 | – | inconclusive: 89.1 µM [inhibitor, single point] | –
O=C(CCc1nc2ccccc2s1)N1CCCC1c1nc(CCOCC2CC2)no1 (configuration not stated) | – | – | inactive: -0.0291%
CN1CCN([C@@H]2[C@H](O)[C@H](CO)O[C@@H]2CN(Cc2ccc(Cl)cc2)Cc2cccc(Cl)c2)CC1 | – | inconclusive: 20 µM [inhibitor, full curve, poor fit] | –
Cn1nccc1OCc1cn2c(=O)n(C)cc(-c3ccccc3F)c2n1 | – | inconclusive: 89.1 µM [inhibitor, partial curve] | –
COc1cccc(C(=O)N2CCCC(c3nn(-c4ccc(Cl)cc4)c(=O)[nH]3)C2)c1 (configuration not stated) | – | inconclusive: 50.1 µM [inhibitor, partial curve, poor fit] | –
O=C(NCCc1ccc(Cl)cc1)C1CCc2nnc(-c3ccc(F)cc3)n21 (configuration not stated) | – | – | inactive: -24.7%
CC1(CCCCN2CCOCC2)COc2ccc(C(=O)Nc3ccccc3)cc2N1 (configuration not stated) | – | inconclusive: 89.1 µM [inhibitor, partial curve] | –
COc1ccccc1-c1ccc(C(=O)N2CCC(NC(=O)NC(C)C)CC2)cc1 | – | inconclusive: 70.8 µM [inhibitor, partial curve, poor fit] | –
O=C(O)CCc1cc2n(n1)CCCN(C(=O)c1cc3c([nH]c1=O)CCC3)C2 | – | inconclusive: 28.2 µM [inhibitor, single point] | –
Cc1cn2nc(C(=O)Nc3ccc(F)cc3F)cc2c(N(C)Cc2ccccc2)n1 | – | inconclusive: 50.1 µM [inhibitor, partial curve, poor fit] | –
COc1ccc(-c2noc([C@@H]3CCCN3C(=O)c3ccc(N(C)C)cc3)n2)cc1OC | – | inconclusive: 56.2 µM [inhibitor, partial curve, poor fit] | –
CCc1ccc(C(=O)N2CCc3[nH]nc(C(=O)NC4CCN(C)CC4)c3C2)cc1 | – | inconclusive: 89.1 µM [inhibitor, single point] | –
Cc1cc(NC(=O)c2ccc3c(c2)N(C)C2CCCCN2C3=O)ccc1Br (configuration not stated) | – | inconclusive: 31.6 µM [inhibitor, full curve] | –
Cn1ncc2c(C(=O)NCc3ccc(Cl)cc3)cc(-c3ccccc3C(F)(F)F)nc21 | – | active: 31.6 µM | –
O=c1cc(-c2cccnc2)oc2c(NCC3CCOCC3)nccc12 | – | – | inactive: -14.1% [at 172 µM]
CCCc1nc(C)n2ccn(Cc3cccc(C#N)c3)c(=O)c12 | – | – | inactive: -7.19%
Cc1ccc(C(=O)NC2CCN(c3cc(-c4cccs4)[nH]n3)CC2)c(C)c1 | – | inconclusive: 50.1 µM [inhibitor, partial curve, poor fit] | –
Cc1ccc(-c2nnc(C3CN(C(=O)C4CCOCC4)CC34CCOCC4)o2)cc1 (configuration not stated) | – | – | inactive: -1.39%
Cc1onc(-c2cnn(C)c2NCc2ccc(C#N)cc2)c1C(=O)Nc1ccccc1 | – | inconclusive: 100 µM [inhibitor, partial curve, poor fit] | –
O=C1NC2(CCCN(C(=O)C3CCCC3)C2)Oc2ccccc21 (configuration not stated) | – | inconclusive: 100 µM [inhibitor, partial curve, poor fit] | –
